# Test results reported in publication PMC4336329 (PLoS ONE, 2015).
# Out of some 310,000 compounds screened, about 14,000 (4.5%) showed an effect of 50% or more. The effect is printed as a negative number. Some of the results follow.
# Target: human ether-à-go-go-related gene (hERG) potassium channel (human, UniProt Q12809)
# Assay: primary screen, population patch clamp on CHO cells stably expressing hERG
# 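Also: peak tail current of the secondary pulse compared with the same well before compound.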
# human ether-à-go-go-related gene (hERG) potassium channel, sequence (Q12809 whole entry, looked up): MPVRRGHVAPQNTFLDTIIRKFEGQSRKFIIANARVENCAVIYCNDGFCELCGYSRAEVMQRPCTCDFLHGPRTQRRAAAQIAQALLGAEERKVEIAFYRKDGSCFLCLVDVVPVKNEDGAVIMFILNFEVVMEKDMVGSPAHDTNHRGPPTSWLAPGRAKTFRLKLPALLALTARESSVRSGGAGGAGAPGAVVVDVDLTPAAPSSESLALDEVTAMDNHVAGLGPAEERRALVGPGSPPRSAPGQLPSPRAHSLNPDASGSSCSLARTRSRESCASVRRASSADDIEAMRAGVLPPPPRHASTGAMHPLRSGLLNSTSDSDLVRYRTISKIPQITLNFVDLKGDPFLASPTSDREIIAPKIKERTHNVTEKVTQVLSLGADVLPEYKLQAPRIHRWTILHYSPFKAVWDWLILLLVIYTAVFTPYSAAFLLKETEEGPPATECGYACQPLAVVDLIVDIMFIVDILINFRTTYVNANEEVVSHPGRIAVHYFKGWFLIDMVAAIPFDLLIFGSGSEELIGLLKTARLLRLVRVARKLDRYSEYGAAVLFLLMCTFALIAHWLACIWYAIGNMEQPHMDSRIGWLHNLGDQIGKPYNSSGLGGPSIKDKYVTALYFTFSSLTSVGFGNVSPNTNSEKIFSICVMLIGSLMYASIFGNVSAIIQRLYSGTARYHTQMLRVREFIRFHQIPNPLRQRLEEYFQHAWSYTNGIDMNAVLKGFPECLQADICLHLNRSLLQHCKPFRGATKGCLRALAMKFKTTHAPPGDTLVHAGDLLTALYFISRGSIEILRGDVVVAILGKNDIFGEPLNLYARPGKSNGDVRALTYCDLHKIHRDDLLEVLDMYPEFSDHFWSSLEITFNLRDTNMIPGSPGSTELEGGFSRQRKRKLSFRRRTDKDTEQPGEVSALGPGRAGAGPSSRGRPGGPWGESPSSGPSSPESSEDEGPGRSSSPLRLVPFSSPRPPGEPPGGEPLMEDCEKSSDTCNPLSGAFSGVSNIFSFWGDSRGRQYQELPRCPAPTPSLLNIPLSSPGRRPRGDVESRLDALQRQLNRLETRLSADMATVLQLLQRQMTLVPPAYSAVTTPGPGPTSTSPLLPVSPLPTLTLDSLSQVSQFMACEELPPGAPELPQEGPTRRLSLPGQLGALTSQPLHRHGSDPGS
row,SMILES,"hERG current change (%, negative = inhibition) at 10uM [%]"
1,COCCn1c(SCC(=O)N2CCOCC2)nc2c(c1=O)SCC2,-14.1
2,CN(Cc1c(F)cccc1Cl)C(=O)c1ccc2ccccc2n1,-11.6
3,COc1ccc(/C=C2\CCc3ccccc3C2=O)cc1Cn1cccn1,2.14
4,COCCCNC(=O)c1ccc(Cn2c(=O)c3ccccc3n(Cc3cc(C)ccc3C)c2=O)cc1,-7.17
5,COC(=O)Nc1c(C)nn(Cc2ccccc2C)c1C,2.75
6,Cn1c(C(=O)N2CCC(C(=O)NCc3ccccc3)CC2)cc2sccc21,6.22
7,COc1ccccc1Oc1coc2cc(OC(=O)N3CCOCC3)ccc2c1=O,-56.4
8,CCCN1CCc2c(sc(NC(=O)c3ccc(S(=O)(=O)N(C)c4ccccc4)cc3)c2C(=O)NC)C1,-29
9,Cn1cc(S(=O)(=O)N2CCCC(C(=O)O)C2)cn1 (stereo not shown),10.5
10,Cc1ccc(-c2nc(NC(=O)c3ccc(S(=O)(=O)N(CCC#N)CCC#N)cc3)sc2-c2ccccc2)cc1,2.57
11,Cn1ncc2c(NNC(=O)C3CCCCC3)ncnc21,24.5
12,COc1cc2cc(CCCOC(=O)c3ccc(F)cc3)oc(=O)c2cc1OC,-29.5
13,Cc1cccn2cc(CCNC(=O)Cc3cccs3)nc12,-12.4
14,O=C(Nc1ccccc1)Nc1ccc2snnc2c1,12.2
15,O=C(O)c1ccc(-n2c(/C=C/c3ccccc3)nc3ccccc3c2=O)cc1,12.5
16,C/C(=N\NC(=S)NC1CCCCC1)c1ccc(OC(F)F)cc1OC(F)F,6.5
17,O=C(C1=C(O)C(=O)N(c2ncccn2)C1c1ccc(Cl)cc1)c1ccco1 (stereo not shown),7.37
18,Cc1ccc2nc(N(CCCN(C)C)C(=O)CN3C(=O)c4ccccc4C3=O)sc2c1.Cl,-47.5
19,Cc1ncoc1C(=O)Nc1ccccc1C(N)=O,6.3
20,CCOC(=O)CCNC(=O)N1CCCC(C(=O)c2ccc3c(c2)OCO3)C1 (stereo not shown),2.31
21,O=C(NC1CCOCC1)C1CCC(=O)N(CCc2cccc(F)c2)C1 (stereo not shown),10.2
22,CN(C(=O)CCN1CCCO1)C1CCCN(Cc2ccccc2F)C1 (stereo not shown),19.2
23,COc1ccc(N2CCN(C(=O)CN(C)S(=O)(=O)c3cnc[nH]3)CC2)cc1,8.89
24,CN(C(=O)c1ccc2c(Cl)c3c(nc2c1)CCC3)c1ccccc1,-18.1
25,COc1ccc(OC)c(-c2nnc(SCC(=O)N3CCOCC3)o2)c1,8.27
26,COC(=O)Nc1ccc(S(=O)(=O)NCCO)cc1,-16.4
27,O=C(NCCNC(=O)c1cccc(O)c1)c1cccc(O)c1,18
28,CC1CC(=O)N(CC(=O)Nc2ccc(F)cc2)c2ccccc2S1(=O)=O (stereo not shown),4

row,SMILES,"hERG current change (%, negative = inhibition) at 10uM [%]"
1,Cc1ccc(C)c2[nH]c(=O)c(CCNC(=O)c3ccc(S(=O)(=O)N4CCOCC4)cc3)cc12,-27.5
2,Cc1c(CCC(C)C)c(=O)n2c([nH]c3ccccc32)c1C#N,26.3
3,COCCNC(=O)[C@H]1C[C@@H]1[C@H](NP(=O)(c1ccccc1)c1ccccc1)c1ccccc1,-4.49
4,Nc1ccc(S(=O)(=O)c2ccccc2)nc1,-13
5,O=C(NCC1CCCO1)C1CCN(C2CCN(CCCC3CCCC3)CC2)CC1 (stereo not shown),-58
6,O=C(Nc1cccc(NC(=O)c2ccccc2)n1)c1ccccc1,-30.4
7,COc1ccc(CCNC(=O)c2cc3sc(Cl)cc3n2C)cc1OC,-5.93
8,CCCC/C(=N/O)c1c(C)[nH]c2ccccc12,-2.13
9,Cc1c(C(=O)O/N=C(\N)c2ccccn2)cccc1[N+](=O)[O-],-4.89
10,Cc1cc(C)c(C)c(S(=O)(=O)N2CCC(C(=O)OCC(=O)N3c4ccccc4NC(=O)C3(C)C)CC2)c1C,-1.58
11,COc1cc(NC(=O)C2CC2)c(OC)cc1NC(=O)CCC(=O)NC1CCN(Cc2ccccc2)CC1,2.82
12,Fc1ccc(CNc2ncnc3cc(Cl)ccc23)cc1,19.6
13,Cc1nc2ccccc2c2nc3ccccc3n12,-8.2
14,CCN(C(=O)COC(=O)c1cccc(S(=O)(=O)N2CCOCC2)c1)C1CCS(=O)(=O)C1 (stereo not shown),-6.01
15,CC(C)Cc1nnc(NC(=O)CCC(=O)N2CCN(c3ccc([N+](=O)[O-])cc3)CC2)s1,-72.3
16,S=c1nc(-c2cccc(Cl)c2)[nH][nH]1,12.2
17,CSc1nc2ccccc2n1CC(=O)Nc1c(C)cccc1C,-1.99
18,Cc1cc(Cl)c2oc(C(=O)N3CCN(c4cccc(C)n4)CC3)c(C)c2c1,16.3
19,O=C(Nc1ccncc1)c1cc(-c2ccccn2)nc2ccc(Br)cc12,19.7
20,CCOc1ccc(-c2nnc(N(CC)C(=O)C3CCC3)s2)cc1,-6.07
21,O=C(c1ccc([N+](=O)[O-])cc1)N(C1=NCCCCS1)c1ccccc1,-5.07
22,COc1ccc(C(=O)Nc2ccc(C)cc2C(=O)c2ccccc2)cc1,-9.17
23,O=C(Nc1ccc(N2CCOCC2)cc1)C1(c2ccc(Cl)cc2)CCC1,-11.8
24,O=C(COc1ccccc1)N/N=C/c1ccc(O[C@@H]2O[C@H](CO)[C@@H](O)[C@H](O)[C@H]2O)cc1,5.52
25,O=C(Nc1nnc(S(=O)(=O)N2CCCCCC2)s1)c1ccccc1Br,12.7
26,O=C1CC(N2CCN(Cc3ccc4c(c3)OCO4)CC2)C(=O)N1c1cccc(Cl)c1 (stereo not shown),-28.6
27,Cc1ccccc1OCCn1cnc2c(N)ncnc21,5.72
